Hit rate of the full screen: of about 48,000 compounds, about 1,200 (2.5%) were called active. Inconclusive results (about 2%) are left out.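 The calls were made as follows: active = activation of at least 60% and not above a set upper limit (about 1 call in 100 departs from these limits); inconclusive = activation of 40% to 60%, or above that upper limit; inactive = activation under 40%.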 Some of the results follow.

The text below walks through data of PubChem BioAssay AID1346428 (National Center for Advancing Translational Sciences (NCATS), 2018).

For this experiment, the target named is Probable G-protein coupled receptor 32 (Homo sapiens) (UniProt O75388). The experiment is described as follows: qHTS for Agonists of Human Resolvin D1 Receptor DRV1. Also: 0% is about no effect. The settings on record: CHO-K1 GPR32 beta-arrestin PathHunter luminescence, 90 min; at 76.9 µM; active compounds read high; zero percent set by DMSO-only wells. The method in brief: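 Engineered CHO-K1 line co-expressing GPR32-ProLink and EA-beta-arrestin. Compound treatment lasted 90 min at 37 °C. Luminescence was recorded after 1 h with substrate at ambient temperature, relative to DMSO basal wells.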
Sequence of UniProt O75388 (O75388 whole entry, looked up): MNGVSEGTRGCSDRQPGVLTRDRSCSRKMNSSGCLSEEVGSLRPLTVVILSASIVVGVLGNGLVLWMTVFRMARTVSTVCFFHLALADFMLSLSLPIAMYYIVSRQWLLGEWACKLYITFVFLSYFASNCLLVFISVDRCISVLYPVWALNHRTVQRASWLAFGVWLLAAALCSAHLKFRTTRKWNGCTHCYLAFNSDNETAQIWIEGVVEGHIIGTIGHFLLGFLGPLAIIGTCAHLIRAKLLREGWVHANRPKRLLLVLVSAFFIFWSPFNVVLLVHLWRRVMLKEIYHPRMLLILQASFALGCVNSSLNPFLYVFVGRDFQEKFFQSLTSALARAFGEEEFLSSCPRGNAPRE
In general terms: In qHTS, concentration-response curves come from the screen itself.
For `O=C(NCCc1ccc(Cl)cc1)c1cc2c(s1)-c1ccccc1OC2`, the activation is active: 62.4%.

Consider `CCOc1ccc(NC(=O)N2CCN(C(=O)c3nsc4ccccc34)CC2)cc1`, for which the activation was inactive: -3.5%.

For `COc1cc(OC)c2c(C)c(CC(=O)NCc3ccccc3OC)c(=O)oc2c1`, the activation was inactive: 14.6%.

Regarding `COc1ccc(-c2cc(C(F)(F)F)nc(SCC(=O)N(C)Cc3ccccc3)n2)cc1`, the activation was inactive: -26.7%.

Turning to `O=S(=O)(Nc1cccc(-c2ccc(N3CCOCC3)nn2)c1)c1ccc(F)c(C(F)(F)F)c1`, the activation is inactive: 29.9%.

In the case of `COc1ccc(CCNC(=O)c2ccc3c(c2)CCN3S(=O)(=O)c2ccc(C)cc2)cc1OC`, the activation is inactive: 6.25%.

On to `Brc1c(Br)c(Br)c2[nH]cnc2c1Br`, for which the activation is inactive: 4.71%.

With `Cc1ccc(NC(=O)CSc2nccn2-c2ccccc2)cc1`, the activation was inactive: -10.5%.

Consider `O=C(COc1ccccc1Cl)Nc1ccc2nc(SCC(=O)N3CCOCC3)sc2c1`, for which the activation was inactive: 3.32%.

With `CCSc1nc2sc3c(c2c(=O)n1-c1ccc(C)c(Cl)c1)CCN(C(C)=O)C3`, the activation was inactive: 8.05%.

With `O=S(=O)(c1ccc2nc(Nc3ccc(Br)cc3F)ccc2c1)N1CCCCC1`, the activation is inactive: -13.7%.

In the case of `O=C(CCNS(=O)(=O)c1ccc2c(c1)CCCC(=O)N2)NCc1ccc(Cl)cc1`, the activation was inactive: 7.41%.

For `Cc1cc(Cl)ccc1OCCSc1nnc(-c2cccs2)o1`, the activation is inactive: -4.65%.

For `Cc1cc(=O)n(Cc2ccc(Br)cc2F)c2c1c(C)nn2-c1ccccc1`, the activation was inactive: -20.7%.

On to `Cc1ccc(NC(=O)Cn2c(=O)n(CCCCC(=O)NCCc3ccccc3)c(=O)c3ccccc32)cc1`, for which the activation was inactive: -3.24%.

In the case of `Cc1ccccc1Cn1cc(S(=O)(=O)c2ccc(F)cc2)c(=O)c2cc3c(cc21)OCO3`, the activation is inactive: 1.83%.

For `COC(=O)c1sccc1S(=O)(=O)N(CC(=O)Nc1cc(F)ccc1F)c1ccc(C)c(C)c1`, the activation was inactive: -1.88%.

Take `CCc1nccn1S(=O)(=O)c1cc(Br)ccc1Br`: the activation was inactive: -4.63%.

Turning to `COc1ccc(C)cc1NC(=O)CN(C)S(=O)(=O)c1ccc2[nH]c(=O)oc2c1`, the activation is inactive: 3.17%.

Regarding `COC(=O)c1ccc2c(c1)N(CC(=O)Nc1ccc(C)cc1Cl)C(=O)c1ccccc1S2`, the activation was inactive: -15.5%.

As for `COc1ccc2c(c1)CC(C(=O)Nc1cc(OC)c(OC)c(OC)c1)CO2` (centres undefined), the activation is inactive: -4.09%.

Consider `Cc1cccc(CCNC(=O)CCc2c(C)nc3c(c(C)nn3-c3ccccc3)c2C)c1`, for which the activation is inactive: -16.5%.

In the case of `COc1ccc(OC)c(CNc2ncnc3onc(C)c23)c1`, the activation is inactive: 4.1%.

Consider `CCOC(=O)c1cc2c(=O)n3ccccc3nc2n(C(C)C)c1=NC(=O)c1c(-c2c(F)cccc2Cl)noc1C`, for which the activation was inactive: 14.1%.
